In the supplement of paper PMC11417369:
The list shows a part of the results.

System: PF3D7_0420300 AP2 domain 1 (GST-tagged)
Test: gcPBM binding intensity (ln(normalized median fluorescence intensity)); higher = stronger DNA binding
Outline: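 GST-tagged P. falciparum DNA-binding domains, expressed in E. coli (about 25 μg on average), were applied for 1 h to an Agilent 4 × 180k array of primer-extended double-stranded 36-bp intergenic genomic probes plus negative controls. The binding buffer was 1× PBS with 1% milk, 0.2 mg/ml BSA, 0.5% salmon testes DNA and 0.03% Triton X-100. Bound protein was detected with Alexa488 anti-GST antibody and scanned at 488 nm. Binding intensity is the highest Masliner-normalised natural-log median intensity across replicate spots of either probe orientation.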

Point of comparison: “TACATATATATATATGTACACACATTAATAAAAAAA [CACACA_site9058]”, “gcPBM binding intensity (ln)” value 9.46. Against it:
- ACAAAATTATGTAGATGTACAGACATAGAAAGAGAT [XGTACX_site3096] — higher, 9.71
- ATTTATGAAAAATGTACACACATCAAATGCTTATAT [CACACA_site4068] — lower, 9.42
- GTTTGAATGGCGCACTGTACACATATATACATATAG [XGTACX_site8619] — higher, 9.6
- TAAAAGTTCACCTGTACACACATATAAATATGTACA [CACACA_site6901] — lower, 9.36
- AACAGACGAAGACACACACACATATATATATATATA [CACACA_site1020] — higher, 9.73
- CGTTTTCTATATCATTGTACATATTCATGTGTAAAT [XGTACX_site2741] — lower, 9.24
- AAAATTAACCGTAACACACACACATATAAATATGTA [CACACA_site7791] — higher, 9.95
- TTGTTTAAGTCACGAACACACATATATCATCAATTT [CACACA_site986] — lower, 9.42
- ATTAATAAATTCAATTGTACTTGTTTATACATAAAA [XGTACX_site3733] — lower, 9.05
- TTATTTTATTTTTGTGCACACTGATAAATTGAAAAG [CACACA_site2949] — lower, 9.12
- TATTAATTTAAATGGGTGCAAAACCTATATAAATAT — lower, 9.23
- ATTTATGTTAATAAGTGTACAATAAATTTTTTTTAT [XGTACX_site7658] — lower, 9.07
- AACATATATAAATACACACACATATATATATGAAAT [CACACA_site4312] — higher, 9.98
- ATAACAAAAAAAAAGGTGCTACAAAATGAATAAAAA [GTGCAC_site9659] — higher, 9.65
- ATATTTTATTTTAATACACACAAGTTATATAACCAC [CACACA_site6508] — higher, 9.5
- AATATAAATAATTATACACACTTAATATATATATAC [CACACA_site5533] — higher, 9.55
- ATATTTAGGAAAAATAGTACACATTTAAATAATAAT [XGTACX_site7989] — lower, 9.34
- TAGGTGCCTTTTTTCACACACATGTCAACTAAATAT [CACACA_site2656] — higher, 9.65
- AAATATATATATATATATATAAATATATACATATAT [TGCATGCA_negctrl_site517] — lower, 9.01
- CTTTAAATTAATAAAAGTACATTATTTATATATTTT [XGTACX_site4808] — lower, 9.02
- TGTATAAATATATATACACACATATTTATATATATA [CACACA_site755] — lower, 9.31
- TATATATGTATCATTACACACATGTATACTTATTTG [CACACA_site4138] — higher, 9.71
- ATATATGTGCCCATATATATATATATAAATATATGT [GTGCAC_negctrl_site226] — lower, 9.23
- TACATTTGTATAAATAGTACGCGAAAACAAAAAAAA [XGTACX_site6246] — higher, 9.49
